Source: PubChem BioAssay AID1030 (National Center for Advancing Translational Sciences (NCATS), 2008)
Out of some 220,000 compounds screened, about 16,000 (7.3%) were called active. This list was built around the results that the source calls inconclusive (neither active nor inactive); the mix of calls is not that of the screen. Calls come from the whole dose curve; as a rule, active = well fitted inhibition curve with a large enough effect (not every such curve was filed as active); inconclusive = small, poorly fitted or top-dose-only effect, or another doubt; inactive = no such curve, though single readings can be large or run the other way. No potency is given beside an inconclusive call; the fits are too rough.

biological target: Aldehyde dehydrogenase 1A1 (Homo sapiens) (UniProt P00352); assay: qHTS Assay for Inhibitors of Aldehyde Dehydrogenase 1 (ALDH1A1); conditions: Purified ALDH1A1, NADH fluorescence, propionaldehyde substrate; series mostly up to 75.3 µM; activity, negative = inhibition: at the top concentration;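 for activity, negative = inhibition: plate controls were no enzyme wells and a reference inhibitor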
UniProt P00352, sequence (P00352 whole entry, looked up): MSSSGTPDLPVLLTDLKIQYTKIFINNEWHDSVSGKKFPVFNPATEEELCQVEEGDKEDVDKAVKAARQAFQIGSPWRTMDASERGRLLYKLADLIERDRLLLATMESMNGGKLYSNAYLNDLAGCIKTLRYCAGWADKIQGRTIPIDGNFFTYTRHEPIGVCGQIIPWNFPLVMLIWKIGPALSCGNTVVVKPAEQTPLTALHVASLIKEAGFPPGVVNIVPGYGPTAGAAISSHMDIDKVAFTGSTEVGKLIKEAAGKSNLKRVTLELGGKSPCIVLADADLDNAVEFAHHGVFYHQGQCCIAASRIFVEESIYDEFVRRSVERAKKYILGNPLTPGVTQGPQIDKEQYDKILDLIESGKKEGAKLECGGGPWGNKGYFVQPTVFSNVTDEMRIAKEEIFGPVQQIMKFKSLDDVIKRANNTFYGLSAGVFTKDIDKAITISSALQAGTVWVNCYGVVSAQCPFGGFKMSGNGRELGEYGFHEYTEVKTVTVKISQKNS
Potency is the fitted concentration of half-maximal effect; tags give direction and shape of the fitted curve.

SMILES | Potency | activity, negative = inhibition
CSc1ccc(NC(=O)N2CCN(c3nc4ccccc4s3)CC2)cc1 | inconclusive [inhibitor, single point] | 
CN(Cc1c(O)ccc2c1oc(=O)c1ccccc12)C1CCCCC1 | inconclusive [inhibitor, partial curve] | 
CCCC(CCC)C(=O)Nc1ccncc1 |  | inactive: 5.14%
Cc1nn(-c2ccccc2)c(N2CCCC2)c1/C=C1\N=C(c2ccc(OC(C)C)cc2)OC1=O |  | inactive: 1.88%
CC[C@H](Cc1c(I)cc(I)c(N)c1I)C(=O)O |  | inactive: -4.53% [at 20.9 µM]
COc1ccc(CN2CCN(S(=O)(=O)c3ccc(F)cc3)CC2)cc1OC | inconclusive [inhibitor, single point] | 
COc1ccc(CNC(=O)C(c2ccco2)N(Cc2cccs2)C(=O)Cc2cccs2)cc1 (centres undefined) | active: 0.631 µM | 
COc1cc(OC)c(C(=O)Nc2ccccc2-c2ccccc2)cc1OC | inconclusive [inhibitor, partial curve] | 
CN1C(C(=O)Nc2ccccn2)=C(O)c2sccc2S1(=O)=O | inactive | 
CCn1c(=O)c2cc(C(=O)N(C)c3ccc(OC)cc3OC)sc2c2ccccc21 |  | inactive: -4.28%
O=C(N/N=C/c1ccc(N2CCOCC2)s1)c1ccccc1Br | active: 14.1 µM | 
CCC1CCCCN1C(=O)CSc1nnc(-c2ccc(OC)cc2)o1 (centres undefined) | inconclusive [inhibitor, single point] | 
CN(C)c1ccc(C(CC(=O)O)NC(=O)c2ccc(Cl)cc2)cc1 (centres undefined) | active: 17.8 µM | 
COc1ccc(C2CC(c3cccs3)=NN2C(=O)CSC2=NN3CCCC(=O)N=C3S2)cc1 (centres undefined) | inconclusive [inhibitor, single point] | 
O=C(NC(=S)Nc1ccc(N2CCOCC2)cc1)c1cccc(Cl)c1 | inconclusive [inhibitor, single point] | 
N#C/C(=C\c1ccc(C(=O)O)cc1)S(=O)(=O)c1cc(Br)ccc1Br | inconclusive [inhibitor, single point] | 
O=Cc1s/c(=N\S(=O)(=O)c2ccccc2)n(CCCCl)c1Cl | inconclusive [inhibitor, single point] | 
CCOC(=O)N1CCN(Cc2nc3c(c(=O)[nH]c(=O)n3C)n2Cc2cc(C)ccc2C)CC1 | inconclusive [inhibitor, partial curve] | 
COc1ccc(Br)cc1/C=N/NC(=O)c1cc(OC)c(OC)c(OC)c1 |  | inactive: 5.56%
Nc1cccc2c1C(=O)N(C(=O)c1ccc(Cl)c(S(=O)(=O)N3CCCCCC3)c1)C2=O | inconclusive [inhibitor, partial curve] | 
CCOC(=O)c1cc(=O)n(Cc2ccccc2C)c2ccccc12 | inconclusive [inhibitor, single point] | 
CN(C)S(=O)(=O)c1ccc(C(=O)NCCSc2ccccc2)cc1 | inconclusive [inhibitor, partial curve] | 
Cc1cccc(Cn2c(CN3CCN(Cc4ccccc4)CC3)nc3c2c(=O)[nH]c(=O)n3C)c1 |  | inactive: -2.3%
Fc1ccc(NC(=S)N2CCSC2c2cccs2)cc1 (centres undefined) | inconclusive [inhibitor, single point] | 
Cn1ccnc1SCC(=O)Nc1cccc(S(=O)(=O)N2CCCCCC2)c1 |  | inactive: -6.26%

SMILES | Potency | activity, negative = inhibition
CCOC(=O)C1=C(C)N(c2ccc(OCC)cc2)C(=O)/C1=C\c1ccco1 | inconclusive [inhibitor, single point] | 
N=C(N)N |  | inactive: 5.09%
CCc1ccc2oc(=O)cc(CN3CCC(C)CC3)c2c1 | inconclusive [inhibitor, single point] | 
CCC(C)C(NC=C1C(=O)OC(C)(C)OC1=O)C(=O)O (centres undefined) | inconclusive [inhibitor, single point] | 
COC(=O)c1ccc(NC(=S)NC2c3ccccc3CC2O)cc1 (centres undefined) | inconclusive [inhibitor, single point] | 
COc1ccc(C(=O)COC(=O)c2ccc(NC(C)=O)cc2)cc1[N+](=O)[O-] | inconclusive [inhibitor, single point] | 
CC(C)(C)NC(=O)c1ccc2nccnc2c1 |  | inactive: -0.28%
CCCCn1nc2cc(C(=O)NCc3ccc4c(c3)OCO4)ccc2c1OCC | inconclusive [inhibitor, single point] | 
O=C(CSc1cccc2cccnc12)N/N=C/c1cccc(O)c1 | inconclusive [inhibitor, single point] | 
CCS(=O)(=O)c1ccc(Sc2nncn2C)c([N+](=O)[O-])c1 | active: 22.4 µM | 
Cc1ccc(CN2C(=O)C3CCCN3c3ccc(S(=O)(=O)N4CCOCC4)cc32)cc1 (centres undefined) | active: 14.1 µM | 
COc1cccc(CN2CCCCC2C(=O)O)c1 (centres undefined) |  | inactive: 6.33%
CC(C)N(Cc1nc(-c2ccccc2)no1)C(=O)Cc1ccccc1 |  | inactive: -2.09%
Cc1ccc(-c2cccc(CN3CCN(C4CCN(C(C)C)CC4)C(CCO)C3)c2)o1 (centres undefined) | inconclusive [inhibitor, single point] | 
COc1ccc(CNC(=O)Nc2cccc3ccccc23)cc1 | inconclusive [inhibitor, partial curve] | 
Cc1nc(N2CCOCC2)c2nc(-c3ccccc3)n(CCN(C)C)c2n1 | inconclusive [inhibitor, partial curve] | 
O=C(Cn1cnc2sc(-c3ccccc3)cc2c1=O)NCCc1ccccc1 | inconclusive [inhibitor, single point] | 
Cc1c(C)n(C)c2ccc(C(=O)NCc3cccs3)cc12 | inconclusive [inhibitor, single point] | 
CCOc1ccc2nc(Cl)c(C3CC(c4ccccc4)=NN3C(=O)c3ccco3)cc2c1 (centres undefined) |  | inactive: 12.8%
COc1ccc(-c2nn(-c3ccccc3)cc2CO)cc1OC | inconclusive [inhibitor, single point] | 
Cc1nn(Cc2ccc(C(=O)N3c4ccc(F)cc4CCC3C)o2)c(C)c1Br (centres undefined) |  | inactive: 0.719%
CN=C(Nc1ccccc1)SC1CC(=O)N(c2ccc(C(=O)OC)cc2)C1=O (centres undefined) | inconclusive [inhibitor, single point] | 
CC1CCCCC1NC(=O)COC(=O)Cc1ccc(Br)cc1 (centres undefined) |  | inactive: -8.2%
COc1cc(NC(=S)Nc2cccc(Cl)c2Cl)c(OC)cc1Cl |  | inactive: -5.43%
N#CC1=C(N)Oc2cc(O)ccc2C1c1cccs1 (centres undefined) | inconclusive [inhibitor, single point] | 

SMILES | Potency | activity, negative = inhibition
COc1ccccc1-c1nc(C#N)c(NCc2ccc(F)cc2)o1 | inconclusive [inhibitor, partial curve] | 
O=C1/C(=C\c2ccco2)SC(=S)N1C1CCS(=O)(=O)C1 (centres undefined) | active: 22.4 µM | 
Cc1ccc(/C=N/n2c(-c3cccs3)n[nH]c2=S)cc1 | inconclusive [inhibitor, partial curve] | 
Cc1sc(NC(=O)C2CCCCC2C(=O)O)c(C(N)=O)c1-c1ccc(C(C)C)cc1 (centres undefined) | inconclusive [inhibitor, single point] | 
Cc1cc(=O)oc2cc(OCC(=O)OCC(=O)Nc3c(C)n(C)n(-c4ccccc4)c3=O)ccc12 | inconclusive [inhibitor, single point] | 
Cn1c(CSc2nc3ccccc3s2)nc2ccccc21 | inconclusive [inhibitor, single point] | 
COC(=O)c1ccc(CSc2nnc(-c3ccncc3)n2Cc2ccccc2)o1 | active: 25.1 µM | 
Cc1ccc(Cn2c(=O)c3ccccc3n3c(SCC(=O)N4CCCCC4C)nnc23)cc1 (centres undefined) | inconclusive [inhibitor, full curve] | 
CCCCCCC(=O)N(O)C1CC(=O)N(c2ccc(Br)cc2)C1=O (centres undefined) | active: 0.562 µM | 
O=C(c1n[nH]c2ccccc12)N1CCN(c2ccc(F)cc2)CC1 |  | inactive: 5.49%
Cc1ccc(Nc2cnn(C34CC5CC(CC(CC(=O)O)(C5)C3)C4)c(=O)c2Cl)cc1C | inconclusive [inhibitor, partial curve] | 
COc1cccc(-c2cc(C(F)(F)F)n3ncc(S(=O)(=O)c4ccccc4)c3n2)c1 | inconclusive [inhibitor, partial curve] | 
CCC(C)Nc1nc(Cl)nc(NCCOc2ccccc2)n1 (centres undefined) | inconclusive [inhibitor, single point] | 
N#CCCCSc1ncccc1-c1nc2ccccc2[nH]1 | inconclusive [inhibitor, single point] | 
CCOC(=O)/C(C#N)=C/c1c(OCC)n(CC)c2ccccc12 | inconclusive [inhibitor, partial curve] | 
CCN1CCN(C(c2cccs2)C(C)NC(=O)CC(C)C)CC1 (centres undefined) | inconclusive [inhibitor, partial curve] | 
COc1cc(OC)c(NC(=S)Nc2cccc(C)c2)cc1Cl | inconclusive [inhibitor, single point] | 
O=C(Cn1c(=O)n(-c2ccc(F)cc2)c(=O)c2sccc21)NC1CCCCC1 |  | inactive: -4.67%
Cc1cc(C(=O)Nc2ccccc2)oc1C | inconclusive [inhibitor, partial curve] | 
NC(CSS(=O)(=O)O)=NCCC12CC3CC(CC(O)(C3)C1)C2 |  | inactive: -5.54%
O=C(c1cc(-c2ccccn2)nc2c(Cl)cccc12)N1CCN(S(=O)(=O)c2ccccc2)CC1 | active: 15.8 µM | 
O=C(/C=C/Nc1ccc(F)c(F)c1)c1cccs1 |  | inactive: -0.418%
O=C(O)C1=C[C@H](c2ccc(Br)cc2)C[C@H](OCCCCO)O1 |  | inactive: 0.434%
O=C(CCN1C(=O)C2CCCCC2C1=O)Nc1ccc(F)c(F)c1F (centres undefined) | active: 10 µM | 
